Test results reported in PubChem BioAssay AID624296 (National Center for Advancing Translational Sciences (NCATS), 2012).
Among all 350,000 compounds or so, about 9,900 (2.8%) were called active. Inconclusive means that the source gave no clear call. Such entries were picked first, then a sample of the others. Calls come from the whole dose curve; as a rule, active = well fitted activation curve with a large enough effect; inconclusive = small, poorly fitted or top-dose-only effect; inactive = no such curve, though single readings can be large or run the other way. Potencies of inconclusive entries are left out as doubtful fits.
Potency is the fitted concentration of half-maximal effect; tags give direction and shape of the fitted curve.

Assay: A quantitative high throughput screen for small molecules that induce DNA re-replication in MCF 10a normal breast cells. For activity, positive = re-replication: % of control where 0% means no effect. Note: nearly all actives have a fitted effect of over 50% in size.
Settings: MCF 10A DNA re-replication, Hoechst nuclear intensity, 48 h; activity, positive = re-replication: at 46.1 µM (top of the series)
In the case of `Cc1cc(C(=O)NN)c2cc(Br)ccc2n1`, the Potency is reported as “inactive”. For `CC1CCCN(C2=NC(=O)/C(=C/c3cn(-c4ccccc4)nc3-c3cccc(S(=O)(=O)N(C)C)c3)S2)C1` (stereo not drawn), the Potency was inconclusive [activator, full curve, poor fit]. In the case of `O=C(COC(=O)/C=C/c1ccccc1Cl)NCCNC(=O)COC(=O)/C=C/c1ccccc1Cl`, the Potency is reported as “inactive”. With `C/C(=N\NC(=O)CO/N=C(\C)c1cccs1)c1ccc(N)cc1` the Potency was “inactive”. With `CCOc1cccc2cc(C(=O)NCc3ccc(Cl)cc3)c(=N)oc12` the Potency was inconclusive [activator, single point]. For `Cc1cc(C)c(O)c(CN(C)Cc2cc(Cl)cc(Cl)c2O)c1`, the Potency was active: 1.64 µM. For `C=CCNC(=O)c1onc(CSc2cc(C)cc(C)c2)c1C(=O)NCC=C`, the Potency was inconclusive [activator, full curve, poor fit]. In the case of `COc1ccc(CCn2c(C)cc(C(=O)CSc3nnnn3-c3ccccc3)c2C)cc1OC`, the Potency is reported as inconclusive [activator, single point]. For `CCc1ccc(S(=O)(=O)ON2C(=O)c3ccccc3C2=O)cc1`, the Potency was active: 18.4 µM. With `CSCCC(NC(=O)c1ccco1)C(=O)N1CC=C(c2ccccc2)CC1` (stereo not drawn) the Potency was “inactive”. For `O=C(Nc1ccncc1)c1ccc(Cl)c([N+](=O)[O-])c1`, the Potency was “inactive”. With `Cn1ccnc1SCC(=O)c1ccc(Cl)cc1` the Potency was inconclusive [activator, single point]. For `O=C(Nc1ccc(Cl)c(S(=O)(=O)Nc2ccccc2Cl)c1)c1cccs1`, the Potency was inconclusive [activator, single point]. For `Cc1cnc(C(=O)OCC(=O)N2CCC(C)CC2)cn1`, the Potency was “inactive”. With `Cc1nc(SCC(=O)N2CCCc3ccccc32)c2oc3ccccc3c2n1` the Potency was inconclusive [activator, single point]. For `CCN1/C(=C/c2ccc3cc(C)ccc3[n+]2C)Sc2ccc3sccc3c21`, the Potency was inconclusive [activator, full curve, poor fit]. For `O=S(=O)(c1ccc(C2CCCCC2)cc1)N1CCCC1`, the Potency was “inactive”. For `COc1cccc(CC(=O)OCC(=O)Nc2nnc(-c3ccccc3)o2)c1`, the Potency was inconclusive [activator, partial curve, poor fit]. In the case of `CCOC(=O)C1=C(c2cccc(Oc3ccccc3)c2)NC(=S)NC1C` (stereo not drawn), the Potency is reported as inconclusive [activator, partial curve, poor fit]. With `CC1CC(C)CN(S(=O)(=O)c2ccc3c(c2)CCN3C(=O)C2CC2)C1` (stereo not drawn) the Potency was “inactive”. With `CCCCOC(=O)C1CN(c2ccccc2)N=C1C(=O)OCC` (stereo not drawn) the Potency was inconclusive [activator, partial curve, poor fit]. In the case of `Cc1ccc(N(CC(=O)NCc2ccc(F)cc2)S(=O)(=O)c2c(C)n[nH]c2C)cc1`, the Potency is reported as “inactive”. In the case of `O=C(CN1CCN(Cc2ccccc2)CC1)Nc1ccccc1-c1ccccc1`, the Potency is reported as inconclusive [activator, single point]. In the case of `O=C(O)Cn1nc(-c2ccccc2)ccc1=O`, the Potency is reported as inconclusive [activator, single point]. For `Cc1cc(O)c(C(C)C)cc1N=Cc1ccccc1[N+](=O)[O-]`, the Potency was inconclusive [activator, single point]. With `O=C(COc1ccccc1)NCC(=O)N1CCCCCC1` the Potency was “inactive”. With `COc1cccc(-c2nnc(NC(=O)c3ccc(S(=O)(=O)N4CC(C)OC(C)C4)cc3)o2)c1` (stereo not drawn) the Potency was inconclusive [activator, partial curve, poor fit]. With `CCC(=NCc1ccco1)c1c(C(F)(F)F)[nH]n(-c2nc3ccccc3s2)c1=O` the Potency was “inactive”. With `COc1cc(N2CCCC2)c(OC)cc1/C=C1/NC(=S)NC1=O` the Potency was inconclusive [activator, partial curve, poor fit]. For `COc1ccc(/C=N/NC(=O)C2c3ccccc3-c3ccccc32)cc1`, the Potency was inconclusive [activator, single point]. With `Cc1ccc(C(=O)CSc2nc3ccccc3c(=O)[nH]2)cc1C` the Potency was inconclusive [activator, partial curve, poor fit]. In the case of `COc1ccc(OCCCC(=O)Nc2ccc(S(=O)(=O)N3CCOCC3)cc2)cc1`, the Potency is reported as “inactive”. For `CN1CCN(c2ccccc2NC(=O)c2ccc(N3CCCCC3)c([N+](=O)[O-])c2)CC1`, the Potency was inconclusive [activator, partial curve, poor fit]. With `COc1ccccc1N(C(=O)c1snc(C(N)=O)c1N)C(C(=O)NCc1ccccc1)c1ccc(O)cc1` (stereo not drawn) the Potency was inconclusive [activator, single point]. In the case of `CCc1ccc(OCC(=O)Nc2ccc(-c3nc4ccccc4o3)c(O)c2)cc1`, the Potency is reported as “inactive”. With `O=C(NCCN1C(=O)S/C(=C\c2ccc(Cl)c([N+](=O)[O-])c2)C1=O)C1=COCCO1` the Potency was active: 3.66 µM. With `CCOC(=O)c1cnn(-c2cc(C(C)(C)C)nc3c(-c4ccccc4)c(C)nn23)c1N` the Potency was “inactive”. In the case of `CC1CC(C)CN(C(=O)Cn2nnc(-c3ccc(Br)cc3)n2)C1` (stereo not drawn), the Potency is reported as inconclusive [activator, partial curve, poor fit]. For `Cc1c(C)c2cccnc2c2ncccc12`, the Potency was inconclusive [activator, single point]. For `Cc1cc(=O)n2nc(N3CCC(C(=O)NCc4ccccc4F)CC3)sc2n1`, the Potency was inconclusive [activator, single point]. For `CN(C)C(=O)c1sccc1Oc1ccc(F)cc1[N+](=O)[O-]`, the Potency was “inactive”. In the case of `O=C(COc1ccc(-n2ccnc2)cc1)Nc1cccc(F)c1`, the Potency is reported as “inactive”. With `CCOC(=O)c1c(NC(=O)C2CCCN(S(=O)(=O)c3ccccc3)C2)sc2c1CCCC2` (stereo not drawn) the Potency was inconclusive [activator, full curve]. For `CCOc1ccc(C(=O)N2CCN(c3ccccn3)CC2)cc1OCC`, the Potency was “inactive”. With `Cc1ccccc1C(=O)c1cccn1CC(=O)NC(C)c1ccc2c(c1)OCCO2` (stereo not drawn) the Potency was “inactive”. With `Cc1c(NC(=O)c2ccc3ncccc3c2)c(=O)n(-c2ccccc2)n1C` the Potency was “inactive”. For `CCOC(=O)c1nc2c(ccc3ccccc32)cc1C`, the Potency was inconclusive [activator, partial curve, poor fit]. For `NC(N)=Nc1nc(-c2ccccc2)c2cc(F)ccc2n1`, the Potency was inconclusive [activator, partial curve, poor fit]. For `COc1ccc(C(=O)N/N=C/c2ccc(OC)c(CN3CCCc4ccccc43)c2)cc1`, the Potency was “inactive”. With `Cc1ccn2c(NC(=O)C(C)(C)Oc3ccc(Cl)cc3)c(-c3cccs3)nc2c1` the Potency was inconclusive [activator, single point]. In the case of `CCCc1nnc(NC(=S)Nc2ccccc2)s1`, the Potency is reported as “inactive”. With `Cc1ccccc1NC(=O)NC1(C(=O)NCC2CCCO2)CCCCC1` (stereo not drawn) the Potency was inconclusive [activator, single point]. For `CC(C)(C)c1ccc(-c2nc3[nH]c(=O)cc(NC(=O)c4ccco4)n3n2)cc1`, the Potency was “inactive”. With `COc1ccc(/C=C/c2c(-c3cccc(C)c3)oc3ccc(N4CCOCC4)cc23)cc1` the Potency was active: 9.2 µM. In the case of `Cc1nonc1CN(C)C(=O)CC1C(=O)NCCN1Cc1ccccc1F` (stereo not drawn), the Potency is reported as “inactive”. For `COc1ccccc1/C=N\NC(=O)c1ccc(COc2ccc(C)c(C)c2)o1`, the Potency was inconclusive [activator, single point]. For `O=C(NCCc1cnc[nH]1)c1ccc(-c2ccccc2)cc1`, the Potency was inconclusive [activator, full curve, poor fit]. In the case of `CCOc1ccc(Br)cc1S(=O)(=O)Nc1cccc(S(=O)(=O)N2CCOCC2)c1`, the Potency is reported as “inactive”. For `COC(C(=O)Nc1ccc(S(=O)(=O)Nc2cccc3ccccc23)cc1)c1ccccc1` (stereo not drawn), the Potency was inconclusive [activator, single point]. For `Cc1nc(SCC(=O)N2CCCC2=O)nc(C)c1C`, the Potency was “inactive”. For `c1ccc(-c2cc3c(N4CCCC4)ncnc3s2)cc1`, the Potency was “inactive”. In the case of `COc1cc(C2C3=C(COC3=O)Oc3cc4c(cc32)OCO4)ccc1O` (stereo not drawn), the Potency is reported as inconclusive [activator, full curve]. For `NC(=O)c1nc[nH]c1C(=O)Nc1cccc(NC(=O)c2cccc(C(F)(F)F)c2)c1`, the Potency was inconclusive [activator, partial curve, poor fit]. In the case of `CC1Cc2ccccc2N1C(=O)CSc1nnc(Cc2ccccc2)n1CCc1ccccc1` (stereo not drawn), the Potency is reported as inconclusive [activator, partial curve, poor fit]. With `COc1ccc(NC(=O)/C(Cl)=C(/Cl)S(=O)Cc2ccccc2Cl)cn1` (stereo not drawn) the Potency was active: 1.03 µM. In the case of `CO/N=C\CC(=O)Nc1ccc(Cl)cc1Cl`, the Potency is reported as active: 16.4 µM. For `O=C(NNc1ccccc1Br)C(O)(c1cccc(C(F)(F)F)c1)c1cccc(C(F)(F)F)c1`, the Potency was inconclusive [activator, single point] and the activity, positive = re-replication was inconclusive: -43.4% [activator]. With `CCC(=O)NC(C)c1cc(Cl)c2cccnc2c1O` (stereo not drawn) the Potency was inconclusive [activator, partial curve, poor fit]. With `Cc1cc(/C=C2\SC(=O)NC2=O)c(C)n1-c1ccc(N(C)C)cc1` the Potency was inconclusive [activator, partial curve, poor fit]. In the case of `CC(Sc1nnc(N)s1)C(=O)Nc1ccc2c(c1)OCCO2` (stereo not drawn), the Potency is reported as “inactive”. In the case of `CN1c2ccc(Cl)cc2C(=O)NC1c1ccc([N+](=O)[O-])s1` (stereo not drawn), the Potency is reported as active: 11.6 µM. With `c1ccc(-c2cnnc(SCc3cn4cccnc4n3)n2)cc1` the Potency was inconclusive [activator, partial curve, poor fit].
